Measurements reported in patent US20240076343A1 (CEPHALON, published 2024).

T1: high-affinity hIL-2 receptor (IL-2Rαβγ) (human, UniProt P01589 22-272; P14784 27-551; P31785 23-369)
T1 sequence 1: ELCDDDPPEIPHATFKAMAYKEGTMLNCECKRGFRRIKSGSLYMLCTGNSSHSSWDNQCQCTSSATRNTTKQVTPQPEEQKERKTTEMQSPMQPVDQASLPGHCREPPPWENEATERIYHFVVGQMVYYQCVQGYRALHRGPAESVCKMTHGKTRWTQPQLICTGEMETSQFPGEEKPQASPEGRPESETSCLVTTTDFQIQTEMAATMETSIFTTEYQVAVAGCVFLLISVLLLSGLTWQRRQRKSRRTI
T1 sequence 2: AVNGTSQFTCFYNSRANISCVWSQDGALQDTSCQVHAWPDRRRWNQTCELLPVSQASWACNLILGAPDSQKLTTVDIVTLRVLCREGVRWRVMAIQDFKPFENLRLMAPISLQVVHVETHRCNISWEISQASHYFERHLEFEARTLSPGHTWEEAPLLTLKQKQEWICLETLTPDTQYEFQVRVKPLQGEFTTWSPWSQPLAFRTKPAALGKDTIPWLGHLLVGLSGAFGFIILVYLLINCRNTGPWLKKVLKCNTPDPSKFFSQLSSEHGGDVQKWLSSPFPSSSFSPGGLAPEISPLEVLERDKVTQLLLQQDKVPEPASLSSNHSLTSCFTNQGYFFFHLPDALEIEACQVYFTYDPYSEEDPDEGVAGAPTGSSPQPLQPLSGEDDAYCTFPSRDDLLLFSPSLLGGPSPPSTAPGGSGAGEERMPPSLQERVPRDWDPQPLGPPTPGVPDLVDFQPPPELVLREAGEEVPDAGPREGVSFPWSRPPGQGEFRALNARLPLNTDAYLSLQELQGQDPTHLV
T1 sequence 3: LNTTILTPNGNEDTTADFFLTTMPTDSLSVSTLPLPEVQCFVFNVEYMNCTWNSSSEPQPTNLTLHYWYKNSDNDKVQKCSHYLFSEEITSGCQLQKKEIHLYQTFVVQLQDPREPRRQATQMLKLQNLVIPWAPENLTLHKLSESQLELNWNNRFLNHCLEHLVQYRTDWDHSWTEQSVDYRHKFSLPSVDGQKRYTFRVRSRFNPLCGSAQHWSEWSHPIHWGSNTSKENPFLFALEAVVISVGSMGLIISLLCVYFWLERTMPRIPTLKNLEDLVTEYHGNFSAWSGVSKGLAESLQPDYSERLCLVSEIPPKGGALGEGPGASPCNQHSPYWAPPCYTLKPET

T2: intermediate affinity hIL-2 receptor complex (IL-2Rβγ) (human, UniProt P14784 27-551; P31785 23-369)
T2 sequence 1: T1 sequence 2
T2 sequence 2: T1 sequence 3

B1: 1H3-hIgG1-L6-hCD25(1-164)-L20-hIL-2 (E95A) (other)
heavy: EVQLVESGGGLVQPGRSLKLSCAVSGFTFSDYAMAWVRQAPKKGLEWVATISYDGSRTYYRDSVKGRFTISRDNAKITLYLQMDSLRSEDTATYYCARHGSGYFDYWGQGVMVTVSS[not shown - human IgG1 constant region]SGGGGSELCDDDPPEIPHATFKAMAYKEGTMLNCECKRGFRRIKSGSLYMLCTGNSSHSSWDNQCQCTSSATRNTTKQVTPQPEEQKERKTTEMQSPMQPVDQASLPGHCREPPPWENEATERIYHFVVGQMVYYQCVQGYRALHRGPAESVCKMTHGKTRWTQPQLICTSGGGGSGGGGSGGGGSGGGS[not shown - about 150 residues]
light: DTVLTQSPALAVSPGERVTISCRASESVRTGVHWYQQKPGQQPKLLIYGASNLESGVPARFSGSGSGTDFTLTIDPVEADDTATYFCQQSWNDPFTFGSGTKLEIKRTVAAPSVFIFPPSDEQLKSGTASVVCLLNNFYPREAKVQWKVDNALQSGNSQESVTEQDSKDSTYSLSSTLTLSKADYEKHKVYACEVTHQGLSSPVTKSFNRGEC
B2: 1H3-hIgG1-L6-hCD25(1-164)-L20-hIL-2 (N88F) (other)
heavy: EVQLVESGGGLVQPGRSLKLSCAVSGFTFSDYAMAWVRQAPKKGLEWVATISYDGSRTYYRDSVKGRFTISRDNAKITLYLQMDSLRSEDTATYYCARHGSGYFDYWGQGVMVTVSS[not shown - human IgG1 constant region]SGGGGSELCDDDPPEIPHATFKAMAYKEGTMLNCECKRGFRRIKSGSLYMLCTGNSSHSSWDNQCQCTSSATRNTTKQVTPQPEEQKERKTTEMQSPMQPVDQASLPGHCREPPPWENEATERIYHFVVGQMVYYQCVQGYRALHRGPAESVCKMTHGKTRWTQPQLICTSGGGGSGGGGSGGGGSGGGS[not shown - about 150 residues]
light: B1 light
B3: 1H3-hIgG1-L6-hCD25(1-164)-L20-hIL-2 (S87A) (other)
heavy: EVQLVESGGGLVQPGRSLKLSCAVSGFTFSDYAMAWVRQAPKKGLEWVATISYDGSRTYYRDSVKGRFTISRDNAKITLYLQMDSLRSEDTATYYCARHGSGYFDYWGQGVMVTVSS[not shown - human IgG1 constant region]SGGGGSELCDDDPPEIPHATFKAMAYKEGTMLNCECKRGFRRIKSGSLYMLCTGNSSHSSWDNQCQCTSSATRNTTKQVTPQPEEQKERKTTEMQSPMQPVDQASLPGHCREPPPWENEATERIYHFVVGQMVYYQCVQGYRALHRGPAESVCKMTHGKTRWTQPQLICTSGGGGSGGGGSGGGGSGGGS[not shown - about 150 residues]
light: B1 light
B4: 1H3-hIgG1-L6-hCD25(1-164)-L20-hIL-2 (E95K) (other)
heavy: EVQLVESGGGLVQPGRSLKLSCAVSGFTFSDYAMAWVRQAPKKGLEWVATISYDGSRTYYRDSVKGRFTISRDNAKITLYLQMDSLRSEDTATYYCARHGSGYFDYWGQGVMVTVSS[not shown - human IgG1 constant region]SGGGGSELCDDDPPEIPHATFKAMAYKEGTMLNCECKRGFRRIKSGSLYMLCTGNSSHSSWDNQCQCTSSATRNTTKQVTPQPEEQKERKTTEMQSPMQPVDQASLPGHCREPPPWENEATERIYHFVVGQMVYYQCVQGYRALHRGPAESVCKMTHGKTRWTQPQLICTSGGGGSGGGGSGGGGSGGGS[not shown - about 150 residues]
light: B1 light
B5: 1H3-hIgG1-L6-hCD25(1-164)-L20-hIL-2 (N88E) (other)
heavy: EVQLVESGGGLVQPGRSLKLSCAVSGFTFSDYAMAWVRQAPKKGLEWVATISYDGSRTYYRDSVKGRFTISRDNAKITLYLQMDSLRSEDTATYYCARHGSGYFDYWGQGVMVTVSS[not shown - human IgG1 constant region]SGGGGSELCDDDPPEIPHATFKAMAYKEGTMLNCECKRGFRRIKSGSLYMLCTGNSSHSSWDNQCQCTSSATRNTTKQVTPQPEEQKERKTTEMQSPMQPVDQASLPGHCREPPPWENEATERIYHFVVGQMVYYQCVQGYRALHRGPAESVCKMTHGKTRWTQPQLICTSGGGGSGGGGSGGGGSGGGS[not shown - about 150 residues]
light: B1 light
B6: 1H3-hIgG1-L6-hCD25(1-164)-L20-hIL-2 (N88Y) (other)
heavy: EVQLVESGGGLVQPGRSLKLSCAVSGFTFSDYAMAWVRQAPKKGLEWVATISYDGSRTYYRDSVKGRFTISRDNAKITLYLQMDSLRSEDTATYYCARHGSGYFDYWGQGVMVTVSS[not shown - human IgG1 constant region]SGGGGSELCDDDPPEIPHATFKAMAYKEGTMLNCECKRGFRRIKSGSLYMLCTGNSSHSSWDNQCQCTSSATRNTTKQVTPQPEEQKERKTTEMQSPMQPVDQASLPGHCREPPPWENEATERIYHFVVGQMVYYQCVQGYRALHRGPAESVCKMTHGKTRWTQPQLICTSGGGGSGGGGSGGGGSGGGS[not shown - about 150 residues]
light: B1 light
B7: 1H3-hIgG1-L6-hCD25(1-164)-L20-hIL-2 (N88D) (other)
heavy: EVQLVESGGGLVQPGRSLKLSCAVSGFTFSDYAMAWVRQAPKKGLEWVATISYDGSRTYYRDSVKGRFTISRDNAKITLYLQMDSLRSEDTATYYCARHGSGYFDYWGQGVMVTVSS[not shown - human IgG1 constant region]SGGGGSELCDDDPPEIPHATFKAMAYKEGTMLNCECKRGFRRIKSGSLYMLCTGNSSHSSWDNQCQCTSSATRNTTKQVTPQPEEQKERKTTEMQSPMQPVDQASLPGHCREPPPWENEATERIYHFVVGQMVYYQCVQGYRALHRGPAESVCKMTHGKTRWTQPQLICTSGGGGSGGGGSGGGGSGGGS[not shown - about 150 residues]
light: B1 light

Molecular target: T1, high-affinity hIL-2 receptor (IL-2Rαβγ)
Test: cell-based or functional assay

Row | Fold change from rhIL-2 (NK-92), pSTAT5 titration [fold] | Binder
1 | 30 | B1
2 | > 10000 | B2
3 | 305 | B3
4 | 792 | B4
5 | > 10000 | B5
6 | > 10000 | B6
7 | 393 | B7

Molecular target: T2, intermediate affinity hIL-2 receptor …
Test: cell-based or functional assay

Row | Fold change from rhIL-2 (TF1 + IL-2Rβ), pSTAT5 titration [fold] | Binder
8 | 16 | B1
9 | > 10000 | B2
10 | 44 | B3
11 | ~434 | B4
12 | > 10000 | B5
13 | > 10000 | B6
14 | > 10000 | B7
